PubChem BioAssay (NCATS)
Inconclusive results, whose numbers are uncertain, are shown with a selection of clear calls. No potency is given beside an inconclusive call; the fits are too rough. Active and inactive are the calls of the source. Calls follow the shape of the dose curve; as a rule, active = well fitted inhibition curve with a large enough effect; inconclusive = small, poorly fitted or top-dose-only effect; inactive = no such curve, though single readings can be large or run the other way.

test: NS1 protein of Zika virus - qHTS assay to identify small molecule inhibitors in human HEK 293 cells (AID 1347053); conditions: HEK293 ZIKV MR766 infection, NS1 TR-FRET, 24 h; series mostly up to 46.1 µM; activity change, negative = inhibition: at the top concentration; also: nearly all actives have a fitted effect of over 55% in size;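 as to activity change, negative = inhibition: plate controls were infected untreated cells for no effect and uninfected cells for full effect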
Description: National Center for Advancing Translational Sciences [NCATS]
Johns Hopkins University School of Medicine
The non-structural 1 (NS1) protein of zika virus is known to associate with the viral replication complex. This cell-based TR-FRET ZIKV NS-1 assay measures the increased NS-1 protein in human HEK 293 cells after a 24-hour Zika virus infection by a TR-FRET assay readout. A decrease in the Time-resolved fluorescence energy transfer (TR-FRET) signal in this assay by small molecule treatment indicates an inhibitory effect of the small molecule on the expression of Zika virus NS1 correlating with Zika virus replication.
HEK 293 cells were cultured in EMEM (ATCC, Cat. # 30-2003) medium with 10% fetal bovine serum (GE healthcare Life Sciences, Cat. # SH30071.03), and 1% Pen/Strep (Gibco, Cat. # 15140-122). Cells were seeded in the assay plate and incubated at 37 C with 5% CO2 for 20 hours. Compounds were added to cells and incubated for one hour before addition of ZIKV MR766 strain solution to cells (MOI = 0.5). After an incubation at 37 C for 24 hours, the reagent mixture of TR-FRET ZIKV NS1 assay using two anti-ZIKV NS1 antibodies was added to assay plates. The TR-FRET signals in assay plates were measured using an Envision plate reader (PerkinElmer). Data were normalized by using the cell-containing wells without ZIKV as a negative control (0% NS-1) and wells containing ZIKV infected cells as a positive control (100% NS-1 level).
Potency is read from the fitted curve at half-maximal effect; tags tell the direction and shape of the fitted curve.

| SMILES | activity change, negative = inhibition | Potency |
| --- | --- | --- |
| NC(N)=NCCCCN=C(N)N | inactive: 9.59% | – |
| O=C(O)CCCCC1CCSS1 (stereo not given) | inactive: -0.816% | – |
| O=C(O)CCC(=O)O | inactive: -0.793% | – |
| O=C(O)CCCC[P+](c1ccccc1)(c1ccccc1)c1ccccc1 | inactive: 4.61% | – |
| COc1cc(N)c(Cl)cc1C(=O)OCCN1CCCCC1 | inactive: -3.62% | – |
| COc1ccc2cc(C=O)ccc2c1 | inactive: 3.04% | – |
| O=C(c1ccc2c(c1)OCCO2)N1CCCCC1 | inactive: 6.7% | – |
| CNC(=O)CN1CCC(Oc2cc3c(Nc4cccc(Cl)c4F)ncnc3cc2OC)CC1 | – | inconclusive [inhibitor, single point] |
| CN1CCC(OC(c2ccccc2)c2ccccc2)CC1 | inactive: 6.69% | – |
| OC1(c2ccc(Cl)cc2)CCN(Cc2c[nH]c3ccccc23)CC1 | – | inconclusive [inhibitor, single point] |
| S=C(S)N1CCCC1 | – | active: 7.94 µM |
| CSc1ccccc1N1CCN(CCCCCC(=O)NC2CCCc3ccccc32)CC1 (stereo not given) | – | inconclusive [inhibitor, single point] |
| C[N+]12CCC(CC1)C(OC(=O)C(O)(c1ccccc1)c1ccccc1)C2 (stereo not given) | inactive: -18.6% | – |
| CCCCCCCCCC[Si](C)(C)CCC(=O)NC(Cc1ccc(C)cc1)c1ccccc1 (stereo not given) | inactive: 4.99% | – |
| O=C(N[C@@H](Cc1ccccc1)C(=O)CCl)OCc1ccccc1 | – | inconclusive [inhibitor, single point] |
| CCCCCCCCCCCCCCCC(=O)OC(CC(=O)O)C[N+](C)(C)C (stereo not given) | inactive: 4.31% | – |
| CC[N+](C)(C)c1cccc(O)c1 | – | inactive |
| NC(N)=NC(N)=Nc1cccc(Cl)c1 | inactive: 0.485% | – |
| C[C@@H]1O[C@@H](O[C@H]2CC[C@@]3(C)[C@H](CC[C@@H]4[C@H]3C[C@@H](O)[C@]3(C)[C@@H](C5=CC(=O)OC5)CC[C@]43O)C2)C[C@H](O)[C@@H]1O[C@H]1C[C@H](O)[C@H](O[C@H]2C[C@H](O)[C@@H](O)[C@@H](C)O2)[C@H](C)O1 (stereo in doubt) | – | active: 0.136 µM |
| Cc1ccc([N+](=O)[O-])cc1S(=O)(=O)N(C)C | inactive: -5.63% | – |

| SMILES | activity change, negative = inhibition | Potency |
| --- | --- | --- |
| NS(=O)(=O)c1ccc(N2CCCCS2(=O)=O)cc1 | inactive: -2.19% | – |
| O=C(O)Cc1c[nH]c2ccc(O)cc12 | – | inconclusive [inhibitor, partial curve, poor fit] |
| Cc1cn([C@H]2C[C@H](F)[C@@H](CO)O2)c(=O)[nH]c1=O | inactive: -1.38% | – |
| C=C(C)[C@@H]1CC[C@]2(C(=O)O)CC[C@]3(C)[C@H](CC[C@@H]4[C@@]5(C)CC[C@H](O)C(C)(C)[C@@H]5CC[C@]43C)[C@@H]12 | inactive: 2.19% | – |
| COc1ccc2c(c1)CCC1C2CC[C@@]2(C)C1CC[C@@H]2NCCCCCCN1C(=O)C=CC1=O (stereo not given in full) | inactive: 12% | – |
| O=C(O)Cn1c(C(=O)Nc2nc(-c3ccccc3Cl)cs2)cc2ccccc21 | inactive: -8.88% | – |
| C=C1C(=O)O[C@@H]2[C@H]3O[C@]3(C)CCC=C(C)CC[C@@H]12 | – | inconclusive [inhibitor, single point] |
| C[C@@H]1C[C@H]2[C@@H]3C[C@H](F)C4=CC(=O)C=C[C@]4(C)[C@@]3(F)[C@@H](O)C[C@]2(C)[C@@]1(O)C(=O)CO | inactive: -0.102% | – |
| C=CCN1CCc2c(cc(O)c(O)c2Br)[C@@H](c2ccccc2)C1 | inactive: 22.3% | – |
| O=C1CC[C@H](C(=O)N2CCCCC2)N1 | inactive: 9.78% | – |
| COc1ccc(/C=C2\COc3ccc(C)cc3C2=O)cc1O | – | inconclusive [inhibitor, single point] |
| CCCCCCC/C=C\CCCCCCCCC(=O)O | inactive: -19.5% | – |
| COc1ccc(NC(=O)c2ccc(-c3ccc(-c4noc(C)n4)cc3C)cc2)cc1N1CCN(C)CC1 | – | inconclusive [inhibitor, single point] |
| c1ccc(-c2ccccn2)nc1 | inactive: 40.2% | – |
| Cc1cc(C)nc(NS(=O)(=O)c2ccc(N)cc2)n1 | – | inconclusive [inhibitor, single point] |
| CC(=O)N(CC(O)CO)c1c(I)c(C(=O)NCCO)c(I)c(C(=O)NCC(O)CO)c1I (stereo not given) | inactive: 6.79% | – |
| O=C1Cc2c([nH]c3ccc(Br)cc23)-c2ccccc2N1 | inactive: 4.05% | – |
| CC(=O)O[C@H]1Cc2ccccc2N(C(N)=O)c2ccccc21 | inactive: 0.911% | – |
| Nc1nc(=O)n([C@H]2C[C@H](O)[C@@H](CO)O2)cc1F | – | inconclusive [inhibitor, full curve] |
| COc1cc(SC)ccc1C(=O)N1CCC(Cc2ccccc2)CC1 | inactive: 16.6% | – |
